Data taken from PubChem BioAssay AID1460 (National Center for Advancing Translational Sciences (NCATS), 2008).
Several values for one entry are separate records, joined by “and”; a condition that tells them apart may be missing. Equal entries are not always repeated. The whole screen tested about 270,000 compounds, of which about 5,800 (2.1%) were called active. This list was built around the results that the source calls inconclusive (neither active nor inactive); the mix of calls is not that of the screen. Calls come from the whole dose curve; as a rule, active = well fitted inhibition curve with a large enough effect; inconclusive = small, poorly fitted or top-dose-only effect; inactive = flat fitted curve, though single readings scatter. Where the call is inconclusive, the potency comes from a doubtful curve fit. More than one record can exist for a structure, and the calls need not agree.

The compounds below were run against Microtubule-associated protein tau (Homo sapiens) (UniProt P10636) (assay: qHTS for Inhibitors of Tau Fibril Formation, Thioflavin T Binding). Details: recombinant tau K18 P301L, heparin-induced fibrillization, ThT fluorescence; series mostly up to 57.4 µM.
Method in brief: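 Using a mix of unlabeled (15 uM) and Alexa 594-labeled (0.24 uM) tau K18 P301L, heparin-triggered fibrillization over 6 hr at 37 C was scored by ThT fluorescence.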
Note: nearly all actives have a fitted effect of over 55% in size.
Potency is the fitted concentration of half-maximal effect; tags give direction and shape of the fitted curve.

Chain of UniProt P10636 (P10636 whole entry, looked up): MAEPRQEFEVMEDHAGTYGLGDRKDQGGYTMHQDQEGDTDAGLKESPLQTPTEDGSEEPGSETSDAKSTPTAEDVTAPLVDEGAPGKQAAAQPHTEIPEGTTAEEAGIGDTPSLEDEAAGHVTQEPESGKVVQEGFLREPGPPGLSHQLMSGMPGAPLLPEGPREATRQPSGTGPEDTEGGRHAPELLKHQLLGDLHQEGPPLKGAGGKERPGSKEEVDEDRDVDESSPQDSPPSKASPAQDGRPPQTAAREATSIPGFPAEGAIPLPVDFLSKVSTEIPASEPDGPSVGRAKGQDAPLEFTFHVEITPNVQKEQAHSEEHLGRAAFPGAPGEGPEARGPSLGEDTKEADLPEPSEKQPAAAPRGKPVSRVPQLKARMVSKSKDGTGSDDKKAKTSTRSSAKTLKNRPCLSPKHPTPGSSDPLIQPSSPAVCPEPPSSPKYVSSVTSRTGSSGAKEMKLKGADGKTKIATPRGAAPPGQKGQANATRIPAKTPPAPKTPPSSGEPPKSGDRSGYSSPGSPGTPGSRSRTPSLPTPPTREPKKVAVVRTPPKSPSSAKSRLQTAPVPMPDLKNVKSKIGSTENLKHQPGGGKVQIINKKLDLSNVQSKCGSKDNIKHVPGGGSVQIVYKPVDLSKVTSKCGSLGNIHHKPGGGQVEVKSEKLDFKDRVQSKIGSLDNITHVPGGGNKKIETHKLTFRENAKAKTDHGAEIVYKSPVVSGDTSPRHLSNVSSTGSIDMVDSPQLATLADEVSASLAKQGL

Question: Which Potency does the source give for `O=C(COC(=O)c1cc(Cl)ccc1[N+](=O)[O-])Nc1cccc2ccccc12` here?
Answer: Its Potency is inconclusive: 14.1 µM [inhibitor, partial curve, poor fit].

Question: For `CCOc1ccc(C2C(C#N)=C(N)N3C(=C2C#N)Sc2ccccc23)cc1` (configuration not stated), which Potency is on record?
Answer: The Potency was inconclusive: 35.5 µM [inhibitor, single point].

Question: For `CCOC(=O)c1c(NC(C)=O)sc2c(O)c(CN3CCN(CC)CC3)ccc12`, which Potency is on record?
Answer: The Potency was inconclusive: 15.8 µM [inhibitor, partial curve].

Question: How did the Potency turn out when `CC(=O)OCC1=C(C(=O)O)N2C(=O)C(NC(=O)CSc3ccncc3)[C@@H]2SC1` (some centres not stated) was run?
Answer: Its Potency is inconclusive: 17.8 µM [inhibitor, partial curve].

Question: Which Potency does the source give for `O=C(OCC1OC(OC(=O)c2cc(O)c(O)c(OC(=O)c3cc(O)c(O)c(O)c3)c2)[C@@H](OC(=O)c2cc(O)c(O)c(OC(=O)c3cc(O)c(O)c(O)c3)c2)C(OC(=O)c2cc(O)c(O)c(OC(=O)c3cc(O)c(O)c(O)c3)c2)C1OC(=O)c1cc(O)c(O)c(OC(=O)c2cc(O)c(O)c(O)c2)c1)c1cc(O)c(O)c(OC(=O)c2cc(O)c(O)c(O)c2)c1` (some centres not stated) here?
Answer: The Potency was active: 1.26 µM.

Question: For `CCn1cc(CCC(=O)O)c(C)n1`, which Potency is on record?
Answer: The Potency was “inactive”.

Question: How did the Potency turn out when `C/C(=N\Nc1nc2ccccc2[nH]1)c1ccc([N+](=O)[O-])cc1` was run?
Answer: The Potency was inconclusive: 1.41 µM [inhibitor, full curve].

Question: With `N=c1c[n+](N2CCOCC2)[n-]o1` as the compound, how does the Potency read?
Answer: The Potency was active: 14.1 µM and active: 12.6 µM.

Question: With `Cc1ccc(Cn2c(=O)n(Cc3ccc(Cl)cc3)c(=O)c3cccnc32)cc1` as the compound, how does the Potency read?
Answer: The Potency was “inactive”.

Question: How did the Potency turn out when `Cc1nc(N)sc1C(=O)N1N=N1` was run?
Answer: Its Potency is inconclusive: 39.8 µM [inhibitor, partial curve].

Question: `N=C1/C(=C\c2ccc(SCc3ccccc3)o2)C(=O)N=C2SC(CC(=O)N3CCOCC3)=NN12` was tested. Which Potency did it give?
Answer: Its Potency is active: 14.1 µM.

Question: `COc1ccc(CCNC(=O)Cn2c(=O)c3cccn3c3ccc(F)cc32)cc1OC` was tested. Which Potency did it give?
Answer: The Potency was inconclusive: 6.31 µM [inhibitor, partial curve].

Question: `COc1ccc(C(=O)CCC(=O)Nc2cccc(C(C)=O)c2)cc1` was tested. Which Potency did it give?
Answer: Its Potency is “inactive”.

Question: How did the Potency turn out when `CCOc1ccc(-c2cnc(NCc3cccc(Cl)c3)n2C)cc1` was run?
Answer: The Potency was inconclusive: 12.6 µM [inhibitor, partial curve].

Question: Which Potency does the source give for `O=C(Cc1ccccc1)Nc1ccc2c(c1)C(=O)N(CC1CCCO1)C2=O` (configuration not stated) here?
Answer: The Potency was “inactive”.

Question: Which Potency does the source give for `O=C(O)c1ccc(N/C(=N\S(=O)(=O)c2ccc(Cl)cc2)c2ccccc2)cc1` here?
Answer: The Potency was “inactive”.

Question: How did the Potency turn out when `CCOc1ccc(NC(=O)CSc2nnc(NC(=O)Nc3ccccc3)s2)cc1` was run?
Answer: The Potency was inconclusive: 3.16 µM [inhibitor, partial curve].

Question: With `COC(=O)[C@@]1(Cc2ccc(OC)cc2)[C@H]2c3cc(C(=O)N4CCCC4)n(CCN4CNCC4=O)c3C[C@H]2CN1C(=O)c1ccccc1` as the compound, how does the Potency read?
Answer: The Potency was “inactive”.

Question: For `Cc1cccc(CSc2cn(CC(=O)N3CCCCCC3)c3ccccc23)c1`, which Potency is on record?
Answer: Its Potency is inconclusive: 5.62 µM [inhibitor, single point].

Question: Which Potency does the source give for `COc1ccc(CN2C=C3C(=O)C(C)(OC(=O)C4CCCC4)C(=O)C=C3C=C2c2ccsc2)cc1` (configuration not stated) here?
Answer: The Potency was active: 17.8 µM.

Question: `CCC(c1nnnn1CCc1ccccc1)N(Cc1ccco1)Cc1cc2cc(C)cc(C)c2[nH]c1=O` (configuration not stated) was tested. Which Potency did it give?
Answer: Its Potency is inconclusive: 11.2 µM [inhibitor, partial curve].

Question: How did the Potency turn out when `CC(=O)c1ccc(OCc2cccc(C(F)(F)F)c2)cc1O` was run?
Answer: The Potency was inconclusive: 31.6 µM [inhibitor, partial curve, poor fit].

Question: `CCOC(=O)CSc1nc2ccc(NC(=O)COc3ccccc3)cc2s1` was tested. Which Potency did it give?
Answer: The Potency was inconclusive: 3.55 µM [inhibitor, full curve].

Question: `CN1CCN(C2=C(NS(=O)(=O)c3cccs3)C(=O)c3ccccc3C2=O)CC1` was tested. Which Potency did it give?
Answer: Its Potency is inconclusive: 17.8 µM [inhibitor, partial curve].

Question: For `COc1cc(/C=N/Nc2ncc(C(F)(F)F)cc2Cl)cc(OC)c1O`, which Potency is on record?
Answer: The Potency was inconclusive: 11.2 µM [inhibitor, partial curve].

Question: `O=[N+]([O-])c1ccc(Sc2nnnn2-c2ccccc2)c(Cl)c1` was tested. Which Potency did it give?
Answer: Its Potency is inconclusive: 22.4 µM [inhibitor, partial curve].

Question: For `Fc1ccc(-c2cnn3c(-c4ccncc4)ccnc23)cc1`, which Potency is on record?
Answer: The Potency was active: 3.16 µM.

Question: How did the Potency turn out when `COc1ccc(NC(=O)c2ccc(NC(=O)CSc3nccc(=O)[nH]3)cc2)cc1` was run?
Answer: Its Potency is inconclusive: 14.1 µM [inhibitor, partial curve, poor fit].

Question: How did the Potency turn out when `C/C(=N\Nc1nc2ccccc2s1)c1ccc(Br)s1` was run?
Answer: Its Potency is inconclusive: 14.1 µM [inhibitor, partial curve].

Question: `CC(=O)c1c(OC(=O)c2ccco2)c2ccccc2n1C` was tested. Which Potency did it give?
Answer: The Potency was inconclusive: 28.2 µM [inhibitor, single point].

Question: How did the Potency turn out when `COc1ccc2c(c1OC)C(=O)N1N=C(c3ccc(-c4ccccc4)cc3)CC21` (configuration not stated) was run?
Answer: The Potency was inconclusive: 0.398 µM [inhibitor, full curve].

Question: `Cc1ccc(/C=N/N2CCN(Cc3ccccc3)CC2)s1` was tested. Which Potency did it give?
Answer: The Potency was “inactive”.

Question: How did the Potency turn out when `CC(C)/C=C1\CC/C(=C\c2cccnc2)C1=O` was run?
Answer: The Potency was inconclusive: 15.8 µM [inhibitor, partial curve].

Question: Which Potency does the source give for `Cc1ccc(Nc2nc3c(c(=O)[nH]2)CCCC3)cc1` here?
Answer: The Potency was inconclusive: 39.8 µM [inhibitor, partial curve].

Question: For `COc1ccccc1Nc1ccc([N+](=O)[O-])cc1N`, which Potency is on record?
Answer: Its Potency is active: 14.1 µM.

Question: Which Potency does the source give for `CC(=O)Nc1ccc(N/C=C/C(=O)c2ccc(C)o2)cc1` here?
Answer: The Potency was inconclusive: 5.01 µM [inhibitor, full curve].

Question: With `Cc1cc[n+](CC(=O)c2ccccc2)c2ccccc12` as the compound, how does the Potency read?
Answer: Its Potency is “inactive”.

Question: For `O=C(Cc1ccccc1)NNc1c2ccccc2nc2ccccc12`, which Potency is on record?
Answer: Its Potency is inconclusive: 12.6 µM [inhibitor, partial curve].

Question: With `O=C(Nc1ccc2c(c1)OCCO2)C(=S)NCc1ccccc1` as the compound, how does the Potency read?
Answer: The Potency was inconclusive: 17.8 µM [inhibitor, partial curve].

Question: With `COc1ccc(C(c2c(O)cc(C)n(Cc3ccco3)c2=O)N2CCN(c3ccccc3)CC2)cc1` (configuration not stated) as the compound, how does the Potency read?
Answer: The Potency was inconclusive: 25.1 µM [inhibitor, single point].

Question: For `COc1cc(/C=N/NC(=O)CC2(C)OCCCO2)ccc1OCc1ccccc1`, which Potency is on record?
Answer: The Potency was “inactive”.

Question: How did the Potency turn out when `CCOC(=O)c1c(NC(=O)CN2CCCCC2)sc(CN(C)C)c1-c1ccccc1` was run?
Answer: The Potency was “inactive”.

Question: For `CCN(CC)c1ccc(NC(=O)c2cnn3c(C(F)F)cc(-c4ccccc4)nc23)cc1`, which Potency is on record?
Answer: The Potency was inconclusive: 4.47 µM [inhibitor, partial curve].

Question: `O=C(NCc1ccc(Cl)cc1)c1cnc2sc(N3CCCCCC3)nn2c1=O` was tested. Which Potency did it give?
Answer: The Potency was “inactive”.

Question: How did the Potency turn out when `CCOc1ccc(C2CC(c3ccccc3C)n3nc(N)nc3N2)cc1` (configuration not stated) was run?
Answer: Its Potency is “inactive”.

Question: With `CC(=O)N1N=C(c2ccccc2)OC1c1ccc([N+](=O)[O-])s1` (configuration not stated) as the compound, how does the Potency read?
Answer: The Potency was inconclusive: 14.1 µM [inhibitor, partial curve].

Question: Which Potency does the source give for `COc1cccc(C(=O)NN2c3ccccc3CCc3ccccc32)c1` here?
Answer: Its Potency is “inactive”.

Question: How did the Potency turn out when `O=C1S/C(=C\c2ccc(O)c([N+](=O)[O-])c2)C(=O)N1Cc1cccc([N+](=O)[O-])c1` was run?
Answer: The Potency was active: 11.2 µM.

Question: Which Potency does the source give for `CCN(CC)c1ccc(SS(=O)(=O)O)cc1` here?
Answer: Its Potency is inconclusive: 15.8 µM [inhibitor, partial curve].

Question: With `Cc1cc(C(=O)COC(=O)Cc2n[nH]c(=O)c3ccccc23)c(C)n1-c1cccc(C(F)(F)F)c1` as the compound, how does the Potency read?
Answer: The Potency was inconclusive: 35.5 µM [inhibitor, single point].

Question: With `COc1ccc(N2CCN(C(=O)c3cccc(Cn4cc(Cl)cn4)c3)CC2)cc1` as the compound, how does the Potency read?
Answer: Its Potency is inconclusive: 28.2 µM [inhibitor, partial curve].

Question: With `O=C(Nc1ccc2c(c1)OCCO2)c1cnc2n(c1=O)CCS2` as the compound, how does the Potency read?
Answer: Its Potency is inconclusive: 3.98 µM [inhibitor, full curve].

Question: Which Potency does the source give for `Cn1c(=S)[nH]c(=O)c2ncc(=O)[nH]c21` here?
Answer: Its Potency is “inactive”.

Question: With `CCCCN(C)CCNC(=O)C1CCN(c2nc3ccc(CC)cc3s2)CC1` as the compound, how does the Potency read?
Answer: The Potency was “inactive”.

Question: For `Cc1ccc2nc(SCC(=O)Nc3ccc(F)c([N+](=O)[O-])c3)[nH]c2c1`, which Potency is on record?
Answer: The Potency was inconclusive: 25.1 µM [inhibitor, partial curve].

Question: `CCO[C@@H]1OC(C(N)=O)=C[C@H](C2CCCCC2)[C@H]1CCCO` was tested. Which Potency did it give?
Answer: The Potency was inconclusive: 3.55 µM [activator, partial curve, poor fit].

Question: For `Cc1ccc(N(C)S(=O)(=O)c2cccc(C(=O)NC3=NCCS3)c2)cc1`, which Potency is on record?
Answer: The Potency was “inactive”.

Question: Which Potency does the source give for `Cc1ccccc1C(=O)Oc1ccc(Sc2ccc(O)cc2)cc1` here?
Answer: Its Potency is inconclusive: 15.8 µM [inhibitor, partial curve].

Question: How did the Potency turn out when `N#Cc1c(NC(=O)/C=C/c2ccco2)sc2c1CCCC2` was run?
Answer: The Potency was inconclusive: 7.08 µM [inhibitor, partial curve].

Question: With `COc1ccc(-c2nc3ccc(C(=O)NCC(OC)OC)cc3nc2-c2ccc(OC)cc2)cc1` as the compound, how does the Potency read?
Answer: The Potency was inconclusive: 31.6 µM [inhibitor, partial curve].

Question: Which Potency does the source give for `O=C(Nc1nsc(-c2ccccc2)n1)c1ccc(F)cc1` here?
Answer: The Potency was inconclusive: 8.91 µM [inhibitor, full curve, poor fit].

Question: For `COc1ccc(Cn2nnnc2CN(Cc2cc3cccc(C)c3[nH]c2=O)C2CCCC2)cc1`, which Potency is on record?
Answer: Its Potency is inconclusive: 14.1 µM [inhibitor, partial curve].

Question: With `O=C(NCCN1CCOCC1)c1ccc(=O)oc1` as the compound, how does the Potency read?
Answer: Its Potency is “inactive”.

Question: How did the Potency turn out when `Cc1cccc(N=C2N=C(N)c3ccccc32)c1` was run?
Answer: The Potency was inconclusive: 28.2 µM [inhibitor, partial curve].

Question: With `Nc1ccccc1Nc1cc(-c2ccccc2)nn1-c1cccc(Cl)c1` as the compound, how does the Potency read?
Answer: Its Potency is inconclusive: 17.8 µM [inhibitor, partial curve].

Question: Which Potency does the source give for `O=C(COc1ccccc1)Nc1ccc(OCc2cc(=O)n3ccsc3n2)cc1` here?
Answer: Its Potency is inconclusive: 0.794 µM [inhibitor, full curve].

Question: For `CCOc1ccc(C(=O)Nc2ccc(S(=O)(=O)N(Cc3ccccc3)c3ccccc3)cc2)cc1`, which Potency is on record?
Answer: Its Potency is “inactive”.
